According to the supplement of paper PMC4604168 (melanoma cell lines):
The list shows a part of the results. Repeats are few or missing, and single values can be far off.

test system: IPC-298; assay: cell count relative to DMSO control; melanoma cells; higher = more viable cells; settings: library dose: standard library concentration; 72 h
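Also: cells treated in 1,536-well plates, then fixed and DAPI-stained, with nuclei counted from automated high-throughput microscope images.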

Row | SMILES | cell count [%]
1 | CCCCCCCCc1ccc(CCC(N)(CO)CO)cc1 [fingolimod] + N#Cc1c(O)c2c(-c3ccc(-c4ccccc4O)cc3)csc2[nH]c1=O [A769662] (first compound 10 µM, partner dose 10 µM) | 57.4
2 | CCCCCCCCc1ccc(CCC(N)(CO)CO)cc1 [fingolimod] + CC(C)CCN1c2nc(Nc3cc(F)c(O)c(F)c3)ncc2N(C)C(=O)C1C [BID1870] (first compound 10 µM, partner dose 1 µM) | 79.3
3 | NC(=O)c1ccc(N(C(N)=O)c2c(F)cccc2F)nc1-c1ccc(F)cc1F + N#Cc1c(O)c2c(-c3ccc(-c4ccccc4O)cc3)csc2[nH]c1=O [A769662] (first compound 2 µM, partner dose 10 µM) | 102
4 | CCCCCCCCc1ccc(CCC(N)(CO)CO)cc1 [fingolimod] + O=C(O)c1ccc(-c2c[nH]c3ncc(-c4ccccc4)cc23)cc1C1CCCC1 [GSK650394] (first compound 10 µM, partner dose 0.8 µM) | 46.2
5 | CCCCCCCCc1ccc(CCC(N)(CO)CO)cc1 [fingolimod] + CCN(CC)CCCCNc1ncc2cc(-c3cc(OC)cc(OC)c3)c(NC(=O)NC(C)(C)C)nc2n1 [PD173074] (first compound 10 µM, partner dose 0.5 µM) | 63.5
6 | NC(=O)c1ccc(N(C(N)=O)c2c(F)cccc2F)nc1-c1ccc(F)cc1F + CCCCCCCCCCCC1=C(O)C(=O)C=C(O)C1=O [Embelin] (first compound 2 µM, partner dose 6 µM) | 97.3
7 | CCCCCCCCc1ccc(CCC(N)(CO)CO)cc1 [fingolimod] + O=C(Nc1ccccc1)c1cc([N+](=O)[O-])ccc1Cl [GW9662] (first compound 10 µM, partner dose 10 µM) | 46.7
8 | NC(=O)c1ccc(N(C(N)=O)c2c(F)cccc2F)nc1-c1ccc(F)cc1F + Cn1cc(/C=C2\C(=O)Nc3cccnc32)c2ccccc21 [GW441756] (first compound 2 µM, partner dose 2 µM) | 91.2

test system: IST-MEL1; assay: as above; settings: library dose: standard library concentration; 72 h

Row | SMILES | cell count [%]
9 | NC(=O)c1ccc(N(C(N)=O)c2c(F)cccc2F)nc1-c1ccc(F)cc1F + O=C1NC(=O)/C(=C/c2ccc(-c3ccc(F)cc3O)o2)S1 [AS252424] (first compound 2 µM, partner dose 5 µM) | 93.1
10 | NC(=O)c1ccc(N(C(N)=O)c2c(F)cccc2F)nc1-c1ccc(F)cc1F + COc1ccc(COc2ccc(Cc3cnc(N)nc3N)cc2OC)cc1 [GW2580] (first compound 2 µM, partner dose 5 µM) | 105
11 | NC(=O)c1ccc(N(C(N)=O)c2c(F)cccc2F)nc1-c1ccc(F)cc1F + O=C(O)C(=O)Nc1sc2c(c1C(=O)O)CCNC2 [TCS401] (first compound 2 µM, partner dose 8.33333 µM) | 90.6
12 | CC(C)(C)c1cnc(CSc2cnc(NC(=O)C3CCNCC3)s2)o1 + CC(C)CCN1c2nc(Nc3cc(F)c(O)c(F)c3)ncc2N(C)C(=O)C1C [BID1870] (first compound 0.05 µM, partner dose 1 µM) | 85.2
13 | COc1cc2c(Oc3ccc4[nH]c(C)cc4c3F)ncnc2cc1OCCCN1CCCC1 [cediranib] + COc1ccc(-c2ccc3c(N4CCOCC4)nc(N4C[C@@H](C)O[C@@H](C)C4)nc3n2)cc1CO [KU0063794] (first compound 2 µM, partner dose 0.1 µM) | 111
14 | CCc1ccc(CCOc2ccc(CC3SC(=O)NC3=O)cc2)nc1 (stereo not given) [pioglitazone] + Cn1cc(/C=C2\C(=O)Nc3cccnc32)c2ccccc21 [GW441756] (first compound 10 µM, partner dose 2 µM) | 84.4
15 | NC(=O)c1ccc(N(C(N)=O)c2c(F)cccc2F)nc1-c1ccc(F)cc1F + O=c1cc(-c2cccc3c2Sc2ccccc2S3)oc(N2CCOCC2)c1 [KU55933] (first compound 2 µM, partner dose 5 µM) | 97.3
16 | CN(NC(=O)CC(=O)NN(C)C(=S)c1ccccc1)C(=S)c1ccccc1 + CCc1ccc(CCOc2ccc(CC3SC(=O)NC3=O)cc2)nc1 [pioglitazone] (first compound 0.03 µM, partner dose 10 µM) | 33.8
17 | NC(=O)c1ccc(N(C(N)=O)c2c(F)cccc2F)nc1-c1ccc(F)cc1F + c1cc(-c2cnn3cc(-c4ccc(OCCN5CCCCC5)cc4)cnc23)ccn1 [Dorsomorphin] (first compound 2 µM, partner dose 2 µM) | 103
18 | Cc1ccc(NC(=O)c2cccc(N(C)C)c2)cc1NC(=O)c1ccc(O)cc1 + COc1ccc(-c2ccc3c(N4CCOCC4)nc(N4C[C@@H](C)O[C@@H](C)C4)nc3n2)cc1CO [KU0063794] (first compound 10 µM, partner dose 0.1 µM) | 81.3
19 | NC(=O)c1ccc(N(C(N)=O)c2c(F)cccc2F)nc1-c1ccc(F)cc1F + CCN(CC)CCCCNc1ncc2cc(-c3cc(OC)cc(OC)c3)c(NC(=O)NC(C)(C)C)nc2n1 [PD173074] (first compound 2 µM, partner dose 0.5 µM) | 103
20 | CCCCCCCCc1ccc(CCC(N)(CO)CO)cc1 [fingolimod] + Oc1nc(-c2ccc(C(F)(F)F)cc2)nc2c1CSCC2 [XAV939] (first compound 10 µM, partner dose 10 µM) | 81.9
21 | NC(=O)c1ccc(N(C(N)=O)c2c(F)cccc2F)nc1-c1ccc(F)cc1F + COc1cc2ncnc(Nc3ccc(Oc4ccccc4)cc3)c2cc1OC [SrcI1] (first compound 2 µM, partner dose 10 µM) | 86.1
22 | CCCCCCCCc1ccc(CCC(N)(CO)CO)cc1 [fingolimod] + Oc1cc(-c2nc(-c3ccccc3)[nH]c2-c2ccncc2)ccc1Cl [L779450] (first compound 10 µM, partner dose 1 µM) | 2.98
23 | NC(=O)c1ccc(N(C(N)=O)c2c(F)cccc2F)nc1-c1ccc(F)cc1F + Oc1cc(-c2nc(-c3ccccc3)[nH]c2-c2ccncc2)ccc1Cl [L779450] (first compound 2 µM, partner dose 1 µM) | 95.3
24 | COc1cc2c(Oc3ccc4[nH]c(C)cc4c3F)ncnc2cc1OCCCN1CCCC1 [cediranib] + COC(=O)c1sccc1S(=O)(=O)Nc1ccc(Nc2ccccc2)cc1OC [GSK0660] (first compound 2 µM, partner dose 5 µM) | 117
25 | NC(=O)c1ccc(N(C(N)=O)c2c(F)cccc2F)nc1-c1ccc(F)cc1F + Cc1cc([N+](=O)[O-])ccc1NS(=O)(=O)c1cc(Cl)ccc1Cl [FH535] (first compound 2 µM, partner dose 5 µM) | 57.2
26 | Cc1ccc(NC(=O)c2cccc(N(C)C)c2)cc1NC(=O)c1ccc(O)cc1 + N#Cc1c(O)c2c(-c3ccc(-c4ccccc4O)cc3)csc2[nH]c1=O [A769662] (first compound 10 µM, partner dose 10 µM) | 93.3
27 | NC(=O)c1ccc(N(C(N)=O)c2c(F)cccc2F)nc1-c1ccc(F)cc1F + COc1cc(N2CCC(N3CCN(C)CC3)CC2)ccc1Nc1ncc(Cl)c(Nc2ccccc2S(=O)(=O)C(C)C)n1 [NVP-TAE684] (first compound 2 µM, partner dose 0.4 µM) | 97.2
28 | CCc1ccc(CCOc2ccc(CC3SC(=O)NC3=O)cc2)nc1 (stereo not given) [pioglitazone] + COc1ccc2c(c1)CCC1C2CCC2(C)C(NCCCCCCN3C(=O)C=CC3=O)CCC12 [U73122] (first compound 10 µM, partner dose 2 µM) | 81.9
29 | NC(=O)c1ccc(N(C(N)=O)c2c(F)cccc2F)nc1-c1ccc(F)cc1F + COc1ccc2c(c1)CCC1C2CCC2(C)C(NCCCCCCN3C(=O)C=CC3=O)CCC12 [U73122] (first compound 2 µM, partner dose 2 µM) | 87.9
30 | NC(=O)c1ccc(N(C(N)=O)c2c(F)cccc2F)nc1-c1ccc(F)cc1F + O=S(=O)(c1ccccc1)N(CC(F)(F)F)c1ccc(C(O)(C(F)(F)F)C(F)(F)F)cc1 [T0901317] (first compound 2 µM, partner dose 7 µM) | 84.8
31 | CCCCCCCCc1ccc(CCC(N)(CO)CO)cc1 [fingolimod] + Cc1cc([N+](=O)[O-])ccc1NS(=O)(=O)c1cc(Cl)ccc1Cl [FH535] (first compound 10 µM, partner dose 5 µM) | 17.6
32 | CCCCCCCCc1ccc(CCC(N)(CO)CO)cc1 [fingolimod] + COc1ccc2c(c1)CCC1C2CCC2(C)C(NCCCCCCN3C(=O)C=CC3=O)CCC12 [U73122] (first compound 10 µM, partner dose 2 µM) | 20.3
33 | NC(=O)c1ccc(N(C(N)=O)c2c(F)cccc2F)nc1-c1ccc(F)cc1F + COC(=O)c1sccc1S(=O)(=O)Nc1ccc(Nc2ccccc2)cc1OC [GSK0660] (first compound 2 µM, partner dose 5 µM) | 96.6
34 | CCCCCCCCc1ccc(CCC(N)(CO)CO)cc1 [fingolimod] + Cc1cc(Nc2cc(N3CCN(C)CC3)nc(/C=C/c3ccccc3)n2)n[nH]1 [ENMD2076] (first compound 10 µM, partner dose 0.2 µM) | 9.3
35 | NC(=O)c1ccc(N(C(N)=O)c2c(F)cccc2F)nc1-c1ccc(F)cc1F + COc1ccc(-c2ccc3c(N4CCOCC4)nc(N4C[C@@H](C)O[C@@H](C)C4)nc3n2)cc1CO [KU0063794] (first compound 2 µM, partner dose 0.1 µM) | 96.7
